In assay [1] the test system is HSkMC (human skeletal muscle cells). In words: cytotoxicity call (relative viability < 0.9). The settings on record: 10 µM.
The test system of assay [2] is HepG2. In words: cytotoxicity call (relative viability < 0.9). The settings on record: 10 µM.
Assay [3] concerns S. aureus RN4220. In words: growth inhibition call (relative growth <= 0.2). As to conditions: 50 µM.

Structures are written as SMILES. The list shows a part of the results.

For the compound `C[C@@H]1CN([C@@H](C)CO)C(=O)c2cccc(NC(=O)Nc3ccc(C(F)(F)F)cc3)c2O[C@@H]1CN(C)Cc1ccc(-c2ccccc2)cc1`, the cytotoxicity call in assay [1] and in assay [2] was “inactive” each time. The growth inhibition call in assay [3] was “inactive”.
On to `COc1cccc(Nc2ncnn3ccc(CN4CC[C@@H](N)[C@H](O)C4)c23)c1`, for which the cytotoxicity call in assay [1] and in assay [2] was “inactive” throughout. Besides, in assay [3], the growth inhibition call was “inactive”.
Regarding `O=C(N/N=C/[C@@H](O)[C@H](O)[C@H](O)CO)c1ccccn1`, the cytotoxicity call in assay [1] and in assay [2] was “inactive” in each case. The growth inhibition call in assay [3] was “inactive”.
`C[C@@H]1CCCCO[C@H](CN(C)S(=O)(=O)c2cccs2)[C@@H](C)CN([C@H](C)CO)C(=O)c2cc(NC(=O)Nc3ccc4c(c3)OCO4)ccc2O1`: the cytotoxicity call in assay [1] and in assay [2] was “inactive” throughout. Moreover, the growth inhibition call in assay [3] is “inactive”.
In the case of `COc1ccc(S(=O)(=O)Nc2ccc3c(c2)CC(=O)N([C@@H](C)CO)C[C@H](C)[C@H](CN(C)C(=O)Nc2c(C)noc2C)O3)cc1`, the cytotoxicity call in assay [1] and in assay [2] was “inactive” each time. The growth inhibition call in assay [3] is “inactive”.
Turning to `Cc1noc(C)c1S(=O)(=O)Nc1ccc2c(c1)C(=O)N([C@H](C)CO)C[C@H](C)[C@@H](CN(C)S(C)(=O)=O)OCCCC[C@@H](C)O2`, the cytotoxicity call in assay [1] and in assay [2] was “inactive” throughout. Moreover, the growth inhibition call in assay [3] was “inactive”.
Regarding `COc1ccc(NC(=O)N(C)C[C@@H]2OCCCC[C@@H](C)Oc3ccc(NC(=O)Cc4ccccc4)cc3C(=O)N([C@@H](C)CO)C[C@H]2C)cc1`, the cytotoxicity call in assay [1] and in assay [2] was “inactive” in each case. In addition, in assay [3], the growth inhibition call was “inactive”.
Take `Cc1noc(C)c1S(=O)(=O)N(C)C[C@@H]1Oc2ccc(NS(=O)(=O)c3cccs3)cc2CC(=O)N([C@@H](C)CO)C[C@H]1C`: the cytotoxicity call in assay [1] and in assay [2] was “inactive” throughout. Further, in assay [3], the growth inhibition call is “inactive”.
As to `C[C@@H]1CCCCO[C@@H](CN(C)Cc2ccc(Cl)c(Cl)c2)[C@@H](C)CN([C@@H](C)CO)C(=O)c2cc(NC(=O)Nc3ccc4c(c3)OCO4)ccc2O1`, the cytotoxicity call in assay [1] and in assay [2] was “active” in each case. In addition, the growth inhibition call in assay [3] was “inactive”.
With `CO[C@@H]1CN(C)C(=O)c2ccc(NS(C)(=O)=O)cc2OC[C@@H](C)N(C(=O)C2CCOCC2)C[C@@H]1C`, the cytotoxicity call in assay [1] and in assay [2] was “inactive” each time. Also, the growth inhibition call in assay [3] is “inactive”.
Consider `C[C@@H]1CN([C@@H](C)CO)C(=O)c2cc(NS(=O)(=O)c3cccs3)ccc2O[C@H]1CN(C)S(=O)(=O)c1ccccc1`, for which the cytotoxicity call in assay [1] and in assay [2] was “inactive” in each case. For the same compound, the growth inhibition call in assay [3] was “inactive”.
In the case of `Cc1cc(C)n(N)c(=O)c1C(=O)O`, the cytotoxicity call in assay [1] and in assay [2] was “inactive” throughout. Moreover, in assay [3], the growth inhibition call is “inactive”.
On to `CCN1CCO[C@@]2(O)C=CC(=O)C=C12`, for which the cytotoxicity call in assay [1] and in assay [2] was “inactive” each time. Also, the growth inhibition call in assay [3] is “inactive”.
For the compound `Cc1noc(C)c1S(=O)(=O)Nc1ccc2c(c1)C(=O)N([C@H](C)CO)C[C@@H](C)[C@H](CN(C)C(=O)Nc1ccc(F)cc1)OCCCC[C@H](C)O2`, the cytotoxicity call in assay [1] and in assay [2] was “inactive” each time. In addition, in assay [3], the growth inhibition call was “inactive”.
As for `Cc1noc(C)c1NC(=O)Nc1ccc2c(c1)C(=O)N([C@@H](C)CO)C[C@H](C)[C@@H](CN(C)Cc1ccc(C(F)(F)F)cc1)OCCCC[C@H](C)O2`, the cytotoxicity call in assay [1] and in assay [2] was “inactive” throughout. In addition, in assay [3], the growth inhibition call is “inactive”.
For `C[C@@H]1CN([C@H](C)CO)C(=O)c2cc(NS(C)(=O)=O)ccc2O[C@H]1CN(C)Cc1ccc2c(c1)OCO2`, the cytotoxicity call in assay [1] and in assay [2] was “inactive” each time. Further, the growth inhibition call in assay [3] is “inactive”.
With `COc1ccc(NC(=O)Nc2cccc3c2O[C@H](CN(C)Cc2ccc(Oc4ccccc4)cc2)[C@H](C)CN([C@@H](C)CO)C3=O)cc1`, the cytotoxicity call in assay [1] and in assay [2] was “inactive” in each case. Moreover, the growth inhibition call in assay [3] was “inactive”.
For `Cc1ccc(S(=O)(=O)Nc2ccc3c(c2)C(=O)N([C@@H](C)CO)C[C@H](C)[C@@H](CN(C)C(=O)C2CCCCC2)OCCCC[C@H](C)O3)cc1`, the cytotoxicity call in assay [1] and in assay [2] was “inactive” each time. Also, the growth inhibition call in assay [3] is “inactive”.
In the case of `Cc1ccc(/C=N/Nc2cnnc(=O)[nH]2)o1`, the cytotoxicity call in assay [1] and in assay [2] was “inactive” throughout. Also, the growth inhibition call in assay [3] was “inactive”.
Consider `Clc1cccc(Cl)c1CSc1cccs1`, for which the cytotoxicity call in assay [1] and in assay [2] was “inactive” throughout. The growth inhibition call in assay [3] is “inactive”.
In the case of `O/N=C1\CCCCc2c1[nH]c1ccc(C3CCCCC3)cc21`, the cytotoxicity call in assay [1] and in assay [2] was “inactive” each time. Further, the growth inhibition call in assay [3] is “inactive”.
Turning to `C[C@@H]1CN([C@@H](C)CO)C(=O)c2cc(NS(=O)(=O)c3ccc(F)cc3)ccc2O[C@H]1CN(C)Cc1ccc(-c2ccccc2)cc1`, the cytotoxicity call in assay [1] and in assay [2] was “inactive” throughout. The growth inhibition call in assay [3] is “inactive”.
As to `C[C@@H]1CCCCO[C@@H](CN(C)S(=O)(=O)c2ccc(Cl)cc2)[C@H](C)CN([C@H](C)CO)C(=O)c2cc(NC(=O)Cc3ccccc3)ccc2O1`, in assay [1], the cytotoxicity call was “inactive”. In assay [2], the cytotoxicity call was “active”. The growth inhibition call in assay [3] was “inactive”.
Regarding `Cc1ccnc2ccccc12`, the cytotoxicity call in assay [1] and in assay [2] was “inactive” each time. Moreover, in assay [3], the growth inhibition call was “inactive”.
As for `COc1ccccc1S(=O)(=O)N(C)C[C@H]1OCc2cn(nn2)CCCC(=O)N([C@@H](C)CO)C[C@@H]1C`, the cytotoxicity call in assay [1] and in assay [2] was “inactive” each time. The growth inhibition call in assay [3] is “inactive”.
With `Cc1noc(C)c1NC(=O)Nc1ccc2c(c1)CC(=O)N([C@H](C)CO)C[C@@H](C)[C@H](CN(C)C(=O)NC(C)C)O2`, the cytotoxicity call in assay [1] and in assay [2] was “inactive” each time. Besides, the growth inhibition call in assay [3] is “inactive”.
In the case of `OCC1(O)OCC(O)C(O)C1O` (stereo not given), the cytotoxicity call in assay [1] and in assay [2] was “inactive” throughout. For the same compound, the growth inhibition call in assay [3] is “inactive”.
In the case of `Cc1noc(C)c1NC(=O)Nc1ccc2c(c1)C(=O)N([C@@H](C)CO)C[C@@H](C)[C@H](CN(C)Cc1ccncc1)OCCCC[C@@H](C)O2`, the cytotoxicity call in assay [1] and in assay [2] was “inactive” in each case. Moreover, the growth inhibition call in assay [3] was “inactive”.
Take `C[C@H](CO)N1C[C@H](C)[C@H](CN(C)C(=O)C2CCCCC2)OCCCC[C@H](C)Oc2ccc(NS(=O)(=O)c3cccs3)cc2C1=O`: the cytotoxicity call in assay [1] and in assay [2] was “inactive” in each case. In addition, the growth inhibition call in assay [3] is “inactive”.
As for `C[C@@H]1CCCCO[C@@H](CN(C)CC2CC2)[C@@H](C)CN([C@H](C)CO)C(=O)c2cc(NC(=O)Nc3ccc4c(c3)OCO4)ccc2O1`, the cytotoxicity call in assay [1] and in assay [2] was “inactive” throughout. In addition, in assay [3], the growth inhibition call is “inactive”.
On to `O=C(C[C@H]1CC[C@@H]2[C@H](COC[C@H](O)CN2S(=O)(=O)c2ccccc2)O1)N1CCc2ccccc2C1`, for which the cytotoxicity call in assay [1] and in assay [2] was “inactive” each time. Further, in assay [3], the growth inhibition call is “inactive”.
For `C[C@@H]1CN([C@@H](C)CO)C(=O)c2cc(NC(=O)Nc3ccc(F)cc3)ccc2O[C@@H](C)CCCCO[C@@H]1CN(C)C(=O)C1CCCCC1`, the cytotoxicity call in assay [1] and in assay [2] was “inactive” in each case. The growth inhibition call in assay [3] was “inactive”.
Take `Cc1ccc(S(=O)(=O)N(C)C[C@H]2OCCCC[C@@H](C)Oc3ccc(NC(=O)Nc4ccccc4)cc3C(=O)N([C@@H](C)CO)C[C@@H]2C)cc1`: the cytotoxicity call in assay [1] and in assay [2] was “inactive” in each case. In addition, in assay [3], the growth inhibition call was “inactive”.
For the compound `CCOC(=O)c1cccc(C(=O)O)n1`, the cytotoxicity call in assay [1] and in assay [2] was “inactive” each time. Moreover, the growth inhibition call in assay [3] is “inactive”.
`COc1ccc(S(=O)(=O)Nc2ccc3c(c2)C(=O)N([C@H](C)CO)C[C@H](C)[C@H](CN(C)S(=O)(=O)c2cn(C)cn2)OCCCC[C@H](C)O3)cc1`: the cytotoxicity call in assay [1] and in assay [2] was “inactive” each time. Also, the growth inhibition call in assay [3] is “inactive”.
Take `C[C@@H]1CN([C@H](C)CO)C(=O)c2cc(NC(=O)CCN3CCOCC3)ccc2O[C@H]1CN(C)S(=O)(=O)c1ccc(Cl)cc1`: the cytotoxicity call in assay [1] and in assay [2] was “inactive” in each case. For the same compound, the growth inhibition call in assay [3] is “inactive”.
As to `CCCN(C)C[C@@H]1OCCCC[C@@H](C)Oc2ccc(NC(=O)CCCCCC(=O)Nc3ccccc3N)cc2C(=O)N([C@H](C)CO)C[C@@H]1C`, the cytotoxicity call in assay [1] and in assay [2] was “inactive” in each case. Moreover, the growth inhibition call in assay [3] was “inactive”.
Regarding `CCCNC(=O)[C@@]1(Sc2ccc(C)cc2)CC(=O)N(Cc2ccccc2C(F)(F)F)[C@@H]1c1ccc(CO)cc1`, the cytotoxicity call in assay [1] and in assay [2] was “inactive” in each case. Also, in assay [3], the growth inhibition call was “inactive”.
Regarding `COc1cccc(C#Cc2ccc3c(c2)O[C@H](CN(C)C(C)=O)[C@H](C)CN([C@H](C)CO)S3(=O)=O)c1`, the cytotoxicity call in assay [1] and in assay [2] was “inactive” throughout. Also, the growth inhibition call in assay [3] was “inactive”.
For the compound `COCC(=O)NCc1n[nH]c(=O)c2ccccc12`, the cytotoxicity call in assay [1] and in assay [2] was “inactive” in each case. Moreover, the growth inhibition call in assay [3] is “inactive”.

The values above are taken from the antibiotic and cytotoxicity screens of Wong et al. (2023).
